According to PubChem BioAssay AID1159614 (National Center for Advancing Translational Sciences (NCATS), 2016):
In all, about 45,000 compounds went through this assay and about 65 (0.1%) were called active. The call rests on the fitted dose curve; in most records, active means well fitted activation curve with a large enough effect; inconclusive means small, poorly fitted or top-dose-only effect; inactive means no such curve, though single readings can be large or run the other way. Some of the results follow.

These molecules were tested against Galactocerebrosidase (Homo sapiens) (UniProt P54803) (assay: A Novel Cell-Based Assay to Identify Small Molecules for B -Galactocerebrosidase). Conditions: 145M-Twi-hGALC-G270D cells (Twitcher mouse brain line with human GALC G270D), HMU-beta-Gal fluorescence, 48 h; series mostly up to 57.5 µM; activation: at the top concentration.
Chain of UniProt P54803 (P54803 whole entry, looked up): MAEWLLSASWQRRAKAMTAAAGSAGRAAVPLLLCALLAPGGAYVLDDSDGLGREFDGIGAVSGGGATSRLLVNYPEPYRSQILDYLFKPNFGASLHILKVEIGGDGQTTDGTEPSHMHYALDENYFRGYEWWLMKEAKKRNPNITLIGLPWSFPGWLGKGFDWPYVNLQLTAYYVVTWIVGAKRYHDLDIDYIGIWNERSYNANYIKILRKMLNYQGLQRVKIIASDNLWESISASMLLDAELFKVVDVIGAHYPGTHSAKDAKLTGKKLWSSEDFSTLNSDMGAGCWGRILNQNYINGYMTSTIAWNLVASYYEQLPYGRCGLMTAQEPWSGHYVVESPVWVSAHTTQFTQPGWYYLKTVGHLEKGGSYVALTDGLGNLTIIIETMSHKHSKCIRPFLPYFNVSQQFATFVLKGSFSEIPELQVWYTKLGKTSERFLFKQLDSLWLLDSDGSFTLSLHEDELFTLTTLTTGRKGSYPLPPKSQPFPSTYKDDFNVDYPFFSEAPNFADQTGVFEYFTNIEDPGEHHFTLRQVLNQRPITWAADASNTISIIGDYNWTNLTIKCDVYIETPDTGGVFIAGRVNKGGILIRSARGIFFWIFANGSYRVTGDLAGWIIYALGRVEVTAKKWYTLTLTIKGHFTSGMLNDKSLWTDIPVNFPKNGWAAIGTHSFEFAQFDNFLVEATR
Procedure, shortened: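 Brain-derived Twitcher mouse 145M-Twi cells stably expressing human GALC-G270D or wild-type GALC, treated live, then residual GALC activity read by fluorescence of HMU-b-Gal substrate (0.1 mM final) in citrate-phosphate buffer pH 5.2 with sodium taurocholate. Signal increase indicates enhancement.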
Further: 0% is about no effect; nearly all actives have a fitted effect of over 65% in size.

activation, inactive:
COC(=O)C1=C(C)NC(=O)C1(NC(=O)c1cc(OC)c(OC)c(OC)c1)C(F)(F)F (stereo not drawn) 1.15%
Cc1cc(C)nc(NC(=NCCc2c[nH]c3ccc(Cl)cc23)NC(=O)c2ccccc2C)n1 -3.85%
Cc1cccc(-n2cc(-c3ccccc3)c3c(NC4CCCC4)ncnc32)c1 2.52%
C=Cc1ccc(Cn2nc(-c3ccc(C)cc3)ccc2=O)cc1 -28.8%
CCOC(=O)c1c(NC(=O)c2ccc(S(=O)(=O)N3CCC(C)CC3)cc2)sc2c1CCN(CC)C2 -14.8%
Cc1cccc(Nc2nnc(-c3ccc(C)c(S(=O)(=O)NCC4CCCO4)c3)c3ccccc23)c1 (stereo not drawn) -14.9%
CCOC(=O)c1ccc(N2C(=O)c3n[nH]c(-c4ccco4)c3C2c2ccc(O)c(OCC)c2)cc1 (stereo not drawn) -27.9%
COCCNc1ccc(-c2nc(-c3ccco3)no2)cc1[N+](=O)[O-] -16.8%
O=C(CN1C(=O)COc2ccc(S(=O)(=O)N3CCCC3)cc21)N1CCN(c2ccc(F)cc2)CC1 -7.07%
O=C1CC(c2nnc(Cc3ccc(F)cc3Cl)o2)CN1c1ccccc1 (stereo not drawn) -2.26%
O=C1c2[nH]nc(-c3ccccc3O)c2C(c2ccccc2F)N1Cc1cccnc1 (stereo not drawn) -32.2%
Cc1cccc(-n2c(Cc3ccccc3)nnc2SCc2nc(-c3cccs3)no2)c1 -13.1%
COC(=O)c1ccc(NC(=O)CN2C(=O)CCc3cc(S(=O)(=O)N4CCCCC4)ccc32)cc1 -9.82%
N#Cc1ccccc1Cn1c(=O)n(-c2cccc(C(F)(F)F)c2)c(=O)c2sccc21 -4.53%
CCOC(=O)c1cc(-c2ccccc2)n(CCCC(=O)Nc2cccc(C)c2C)c1C -8.02%
COc1ccc(S(=O)(=O)NCC(c2ccco2)N2CCN(c3ccccc3)CC2)cc1OC (stereo not drawn) 10.7%
O=C(O)CCn1c(=O)c2cccn2c2cccnc21 -9.57%
Cc1[nH]c(=O)[nH]c(=O)c1S(=O)(=O)N1CCN(c2ccccc2Cl)CC1 -2.95%
COc1ccccc1NC(=O)c1sc2nc(C)c(C(=O)Nc3ccc(C)cc3C)c(-c3cccs3)c2c1N -14.4%
COc1cc2[nH]c(=O)n(CCCC(=O)NCc3ccc(Cl)cc3)c(=O)c2cc1OC -19.4%
Cc1ccc(NC(=O)C(=O)NCC(c2cccnc2)N2CCN(c3ccccc3F)CC2)cc1Cl (stereo not drawn) -16%
CCc1ccccc1Nc1nn2c(=O)c3ccc(C(=O)NC(C)c4ccccc4)cc3nc2s1 (stereo not drawn) 1.5%
CC(=O)Nc1ccc(NC(=O)c2cc3sccc3n2Cc2ccc(F)cc2)cc1 -14.9%
CC(C)(C)C1CCc2c(sc3nc(-c4cc5cc(Br)ccc5oc4=O)[nH]c(=O)c23)C1 (stereo not drawn) -8.21%
CCOC(=O)c1c(C)[nH]c(CCC(=O)NCc2ccc(F)cc2)c1C -5.02%
CCOc1cc2[nH]c(=O)n(CCCCC(=O)N3CCN(c4cccc(Cl)c4)CC3)c(=O)c2cc1OCC -3.88%
Cc1cccc2sc(N(Cc3cccnc3)C(=O)c3cccs3)nc12 -8.66%
CCc1ccc(CN2CCc3nc(Nc4ccccc4)ncc3C2)cc1 -6.04%
CCOc1ccccc1NC(=O)N1CCC(n2c(C)nc3cccnc32)CC1 -11.8%
COc1ccc(-n2nc3c(N4CCCC(C(=O)NCc5ccc(C)cc5)C4)nnc(C)c3c2C)cc1 (stereo not drawn) -6.68%
Cc1sc2ncn(CC(=O)Nc3ccc(F)cc3F)c(=O)c2c1S(=O)(=O)N1CCC(C)CC1 -30.8%
COc1ccc(NC(=O)c2cc3nc(-c4ccc(Cl)c(Cl)c4)cc(C(F)(F)F)n3n2)c(OC)c1 -15.1%
COc1cccc(N2CCN(S(=O)(=O)c3cn(C)c(C)n3)CC2)c1 -19.6%
Cc1c(-c2nnc(SCC(=O)Nc3ccccc3F)o2)nnn1-c1ccc(F)cc1 -24.1%
COc1ccc(C(=O)NC2CC(=O)N(c3ccc4c(c3)OCCO4)C2)cc1 (stereo not drawn) -10.9%
COc1ccc(CNC(=O)CCc2cn(C)c3ccccc23)cc1 3.55%
CC(=O)N1CCc2cc(S(=O)(=O)NC(CC(C)C)C(=O)Nc3ccc(C(C)C)cc3)ccc21 (stereo not drawn) -3.11%
CC(C)Cn1cc(NC(=O)Nc2cccc(C(F)(F)F)c2)c2ccccc2c1=O -24.9%
CCn1c(C(=O)N2CCC(C(=O)N3CCN(c4cc(C)ccc4C)CC3)CC2)cc2sccc21 -13.5%
COc1ccc(CNC(=O)c2ccc3nc(CCc4ccccc4)oc3c2)cc1OC -12.3%
CCOc1ccc(CNC(=O)c2cccc(NC(=O)N3CCSc4ncccc43)c2)cc1 -16.4%
CC(C)CC(=O)Nc1nc2c(s1)CC(C(C)(C)C)CC2 (stereo not drawn) -35.4%
CCOC(=O)c1c(C)sc(-c2c(-c3ccc4c(c3)OCCO4)[nH]c3c2c(=O)n(C)c(=O)n3C)c1O -19.9%
Cc1cc(-c2ccc(C)c(S(=O)(=O)N3CCC(C)CC3)c2)on1 -6.45%
CC(=O)N1c2ccc(S(=O)(=O)N3CCCCCC3)cc2CC1C(=O)NC(C)C (stereo not drawn) -10.3%
CCOC(=O)N1CCc2c(sc3c2c(=O)n(Cc2ccccc2)c(=O)n3Cc2cc(C)ccc2C)C1 5.73%
COc1ccc(CC(=O)NC2CC(=O)N(c3cccc(F)c3)C2)cc1OC (stereo not drawn) 1.48%
CCc1nn(CCCC(=O)N2CCN(c3cc(Cl)ccc3C)CC2)c(=O)c2cc3occc3n12 -8.53%
COc1ccccc1Nc1sc(C(=O)c2ccc3c(c2)OCO3)c(N)c1S(=O)(=O)c1ccccc1 -4.17%
Cc1ccc(C2=Nc3ccccc3N(CC(=O)Nc3ccccc3F)C(=O)C2)cc1C -19.2%
CCOC(=O)c1c(C)n(S(=O)(=O)c2ccc(C)cc2C)c2ccc(NS(=O)(=O)c3ccc(C)cc3C)cc12 -2.18%
O=C(Nc1cccc(Cl)c1)c1ccc2nc(CCc3ccccc3)oc2c1 -9.93%
CCCn1c2ccccc2c2cnn(CC(=O)NCc3ccccc3Cl)c(=O)c21 -4.8%
O=c1oc2ccccc2cc1-c1nnc(Nc2ccc(Cl)cc2Cl)s1 -11.6%
CCN(CC)CCCNC(=O)Cc1ccc(NC(=O)N2CCCCc3ccccc32)cc1 3.54%
CCC1Oc2ccc(C)cc2N(CC(=O)NCc2ccc(OC)cc2)C1=O (stereo not drawn) -9.93%
CCCCN1C(=O)c2[nH]nc(-c3ccccc3O)c2C1c1ccc(C(C)(C)C)cc1 (stereo not drawn) -9.11%
COc1ccc2nc(NC(=O)Nc3ccccc3)sc2c1 -20%
COc1cc(OC)c(NC(=O)C2CCN(C(=O)c3sc4nc[nH]c(=O)c4c3C)CC2)cc1Cl 11.4%
CC(C)Oc1ccc(CNC(=O)C2CCN(c3nc4ccccc4nc3C(F)(F)F)CC2)cc1 -15.8%
CCC(=O)N1CCc2cc(Br)cc(S(=O)(=O)N3CCC(C(=O)Nc4ccccc4CC)CC3)c21 -7.28%
COc1cccc(C2CC(=O)Nc3cc4c(cc32)OCO4)c1OC(C)C (stereo not drawn) -4.84%
Cc1nc(-c2ccccc2)sc1-c1ccc(SCC(=O)Nc2cccc(C(F)(F)F)c2)nn1 -11.2%
Cc1ccc(-c2nc3cc(Cl)ccc3o2)cc1NC(=O)c1cc([N+](=O)[O-])ccc1N1CCOCC1 -6.85%
CC(=O)NC1CC(=O)N(c2ccc3c(c2)OCCO3)C1 (stereo not drawn) -8.84%
Cc1oc(C)c2c(=O)cc(-c3ccc4c(c3)OCO4)cc(OC(=O)c3ccccc3Br)c12 -12.2%
COc1ccc(NC(=O)C2CCN(S(=O)(=O)c3ccc4c(c3)CCCC(=O)N4)CC2)cc1Cl -4.08%
CCNC(=O)Cn1c(-c2cccs2)cc2ccccc21 -8.78%
Cc1ccc(CN(C(=O)Nc2cccc(Cl)c2)c2ccccn2)cc1 -31.1%
COc1ccc(Nc2cc(C(=O)NC3CCCC3)c3ccccc3n2)c(OC)c1 -8.21%
CCOc1cccc(C2c3c(oc4ccc(F)cc4c3=O)C(=O)N2CCc2ccc(OC)cc2)c1 (stereo not drawn) -17.4%
COc1ccc(NC(=O)c2nnn(Cc3nc(-c4cc(Br)ccc4OC)oc3C)c2C)cc1 -10.1%
Cc1ccc(C)c(Cn2c(=O)n(CCCCC(=O)NCc3ccccc3Cl)c(=O)c3ccccc32)c1 1.89%
CCn1ccc2cc(S(=O)(=O)N3CCC(C(=O)NCc4cccc(C)c4)CC3)ccc21 -4.83%
CCCCNC(=O)c1cc(Sc2ccc(OCC)cc2)nc2ccccc12 -0.808%
CCOc1ccccc1NC(=O)Cn1ccn(-c2ccccc2)c(=O)c1=O -12.7%
COc1ccccc1N1CCN(c2csc3ccc(Cl)cc3c2=O)CC1 -10.6%
Cc1ccc(Cn2c(-c3ccccc3)nc3ccccc32)cc1 -14.1%
COc1cc(/C=C(\C#N)c2nc3ccccc3c(=O)[nH]2)cc(OC)c1OC -5.65%
COc1ccc(S(=O)(=O)N2CCN(c3ccccc3OC)CC2)cc1-c1noc(C)n1 -12.4%
COc1cc(OC)c(NC(=O)c2cc(CN3CCOCC3)on2)cc1Cl -16%
CCn1ccc2cc(S(=O)(=O)N3CCCN(C(=O)NCC(C)C)CC3)ccc21 -26.8%
O=C(CN1C(=O)C2CCCCN2c2ccc(C(=O)N3CCCC3)cc21)NCc1cccc(Cl)c1 (stereo not drawn) -20.9%
CN(C)c1ccc(CNC(=O)c2cc3cc(S(=O)(=O)N4CCCCC4)ccc3n2C)cc1 -14.3%
CCn1cc(C(=O)NCc2ccc(C)cc2)c(=O)c2cc(S(=O)(=O)N3CCC(C)CC3)ccc21 -11.9%
Cc1ccc(-c2c(C(=O)Nc3ccc(F)c(F)c3)oc(=O)c3ccccc23)cc1 -9.87%
CCOC(=O)OC(C)OC1=C(C(=O)Nc2ccccn2)N(C)S(=O)(=O)c2ccccc21 (stereo not drawn) -19.5%
CCOc1ccc(CNS(=O)(=O)c2c(C(=O)N3CCCCCC3)c(C)n(C)c2C)cc1OC -22.8%
Cc1ccc(Cl)c2sc(NC(=O)CS(=O)(=O)c3ccc(Cl)cc3)nc12 -15.1%
CC(=O)[C@H]1CC[C@H]2[C@@H]3C[C@H](C)C4=CC(=O)CC[C@]4(C)[C@H]3[C@@H](O)C[C@]12C -12%
Cc1cccc(N2CCN(C(=O)CSCc3ccc(F)cc3)CC2)c1C -12.2%
CCCCN(C)C(=O)C1CCCN(c2ncnc3onc(-c4ccc(F)cc4)c23)C1 (stereo not drawn) -19.7%
CCN(CC)S(=O)(=O)c1ccc2c(c1)c(=O)c(C(=O)NCc1ccccc1)cn2C -12.2%
